{"source": "paper PMC9911399", "about": "“Two distinct binding modes provide the RNA-binding protein RbFox with extraordinary sequence specificity”", "binders": {"B1": {"name": "UUUACCU (DNA:RNA)", "RNA": "GGGAGACCGGAAUUCAGAUUGUCCUUUACCUUUAAAUCCCGUCGUAGCCACCA", "DNA 1": "CAATCTGAATTCCGGTCTCCC", "DNA 2": "TGGTGGCTACGACGGGATT"}, "B2": {"name": "GCGUCCC (DNA:RNA)", "RNA": "B1 RNA with U25G, U26C, U27G, A28U, U31C", "DNA 1": "CAATCTGAATTCCGGTCTCCC", "DNA 2": "TGGTGGCTACGACGGGATT"}, "B3": {"name": "GCUUACC (DNA:RNA)", "RNA": "B1 RNA with U25G, U26C, A28U, C29A, U31C", "DNA 1": "CAATCTGAATTCCGGTCTCCC", "DNA 2": "TGGTGGCTACGACGGGATT"}, "B4": {"name": "UAACUGA (DNA:RNA)", "RNA": "B1 RNA with U26A, U27A, A28C, C29U, C30G, U31A", "DNA 1": "CAATCTGAATTCCGGTCTCCC", "DNA 2": "TGGTGGCTACGACGGGATT"}, "B5": {"name": "UCAUUGC (DNA:RNA)", "RNA": "B1 RNA with U26C, U27A, A28U, C29U, C30G, U31C", "DNA 1": "CAATCTGAATTCCGGTCTCCC", "DNA 2": "TGGTGGCTACGACGGGATT"}, "B6": {"name": "AUGUCGG (DNA:RNA)", "RNA": "B1 RNA with U25A, U27G, A28U, C30G, U31G", "DNA 1": "CAATCTGAATTCCGGTCTCCC", "DNA 2": "TGGTGGCTACGACGGGATT"}, "B7": {"name": "AUUUUAU (DNA:RNA)", "RNA": "B1 RNA with U25A, A28U, C29U, C30A", "DNA 1": "CAATCTGAATTCCGGTCTCCC", "DNA 2": "TGGTGGCTACGACGGGATT"}, "B8": {"name": "UUGCAAC (DNA:RNA)", "RNA": "B1 RNA with U27G, A28C, C29A, C30A, U31C", "DNA 1": "CAATCTGAATTCCGGTCTCCC", "DNA 2": "TGGTGGCTACGACGGGATT"}, "B9": {"name": "UCAGCAC (DNA:RNA)", "RNA": "B1 RNA with U26C, U27A, A28G, C30A, U31C", "DNA 1": "CAATCTGAATTCCGGTCTCCC", "DNA 2": "TGGTGGCTACGACGGGATT"}, "B10": {"name": "AAACACU (DNA:RNA)", "RNA": "B1 RNA with U25A, U26A, U27A, A28C, C29A", "DNA 1": "CAATCTGAATTCCGGTCTCCC", "DNA 2": "TGGTGGCTACGACGGGATT"}, "B11": {"name": "UGUAGGC (DNA:RNA)", "RNA": "B1 RNA with U26G, C29G, C30G, U31C", "DNA 1": "CAATCTGAATTCCGGTCTCCC", "DNA 2": "TGGTGGCTACGACGGGATT"}, "B12": {"name": "CCCGAUG (DNA:RNA)", "RNA": "GGGAGACCGGAAUUCAGAUUGUCCCCCGAUGUUAAAUCCCGUCGUAGCCACCA", "DNA 1": "CAATCTGAATTCCGGTCTCCC", "DNA 2": "TGGTGGCTACGACGGGATT"}, "B13": {"name": "AUCAUAU (DNA:RNA)", "RNA": "B1 RNA with U25A, U27C, C29U, C30A", "DNA 1": "CAATCTGAATTCCGGTCTCCC", "DNA 2": "TGGTGGCTACGACGGGATT"}, "B14": {"name": "ACAUCAU (DNA:RNA)", "RNA": "B1 RNA with U25A, U26C, U27A, A28U, C30A", "DNA 1": "CAATCTGAATTCCGGTCTCCC", "DNA 2": "TGGTGGCTACGACGGGATT"}, "B15": {"name": "CUCCACU (DNA:RNA)", "RNA": "B12 RNA with C26U, G28C, U30C, G31U", "DNA 1": "CAATCTGAATTCCGGTCTCCC", "DNA 2": "TGGTGGCTACGACGGGATT"}, "B16": {"name": "GCCAUGU (DNA:RNA)", "RNA": "B12 RNA with C25G, G28A, A29U, U30G, G31U", "DNA 1": "CAATCTGAATTCCGGTCTCCC", "DNA 2": "TGGTGGCTACGACGGGATT"}, "B17": {"name": "GGUACGU (DNA:RNA)", "RNA": "B1 RNA with U25G, U26G, C30G", "DNA 1": "CAATCTGAATTCCGGTCTCCC", "DNA 2": "TGGTGGCTACGACGGGATT"}, "B18": {"name": "GUGAAUU (DNA:RNA)", "RNA": "B1 RNA with U25G, U27G, C29A, C30U", "DNA 1": "CAATCTGAATTCCGGTCTCCC", "DNA 2": "TGGTGGCTACGACGGGATT"}, "B19": {"name": "CGUAUUC (DNA:RNA)", "RNA": "B12 RNA with C26G, C27U, G28A, A29U, G31C", "DNA 1": "CAATCTGAATTCCGGTCTCCC", "DNA 2": "TGGTGGCTACGACGGGATT"}, "B20": {"name": "GGUCGAG (DNA:RNA)", "RNA": "B12 RNA with C25G, C26G, C27U, G28C, A29G, U30A", "DNA 1": "CAATCTGAATTCCGGTCTCCC", "DNA 2": "TGGTGGCTACGACGGGATT"}, "B21": {"name": "GCCCGAU (DNA:RNA)", "RNA": "B12 RNA with C25G, G28C, A29G, U30A, G31U", "DNA 1": "CAATCTGAATTCCGGTCTCCC", "DNA 2": "TGGTGGCTACGACGGGATT"}, "B22": {"name": "AUAUCUU (DNA:RNA)", "RNA": "B1 RNA with U25A, U27A, A28U, C30U", "DNA 1": "CAATCTGAATTCCGGTCTCCC", "DNA 2": "TGGTGGCTACGACGGGATT"}, "B23": {"name": "GUACUGG (DNA:RNA)", "RNA": "B12 RNA with C25G, C26U, C27A, G28C, A29U, U30G", "DNA 1": "CAATCTGAATTCCGGTCTCCC", "DNA 2": "TGGTGGCTACGACGGGATT"}, "B24": {"name": "UACUACG (DNA:RNA)", "RNA": "B12 RNA with C25U, C26A, G28U, U30C", "DNA 1": "CAATCTGAATTCCGGTCTCCC", "DNA 2": "TGGTGGCTACGACGGGATT"}, "B25": {"name": "UCAACUU (DNA:RNA)", "RNA": "B1 RNA with U26C, U27A, C30U", "DNA 1": "CAATCTGAATTCCGGTCTCCC", "DNA 2": "TGGTGGCTACGACGGGATT"}, "B26": {"name": "UUCCCGU (DNA:RNA)", "RNA": "B1 RNA with U27C, A28C, C30G", "DNA 1": "CAATCTGAATTCCGGTCTCCC", "DNA 2": "TGGTGGCTACGACGGGATT"}, "B27": {"name": "UUUCUUA (DNA:RNA)", "RNA": "B1 RNA with A28C, C29U, C30U, U31A", "DNA 1": "CAATCTGAATTCCGGTCTCCC", "DNA 2": "TGGTGGCTACGACGGGATT"}, "B28": {"name": "UAUUAUG (DNA:RNA)", "RNA": "B12 RNA with C25U, C26A, C27U, G28U", "DNA 1": "CAATCTGAATTCCGGTCTCCC", "DNA 2": "TGGTGGCTACGACGGGATT"}, "B29": {"name": "GUUUGAG (DNA:RNA)", "RNA": "B1 RNA with U25G, A28U, C29G, C30A, U31G", "DNA 1": "CAATCTGAATTCCGGTCTCCC", "DNA 2": "TGGTGGCTACGACGGGATT"}, "B30": {"name": "CGUUAGC (DNA:RNA)", "RNA": "B12 RNA with C26G, C27U, G28U, U30G, G31C", "DNA 1": "CAATCTGAATTCCGGTCTCCC", "DNA 2": "TGGTGGCTACGACGGGATT"}, "B31": {"name": "GACCAAA (DNA:RNA)", "RNA": "B12 RNA with C25G, C26A, G28C, U30A, G31A", "DNA 1": "CAATCTGAATTCCGGTCTCCC", "DNA 2": "TGGTGGCTACGACGGGATT"}}, "note": "Residue numbers refer to the chain shown, from its start. Some of the results follow."}
{"molecular_target": "T1, RBFOX1 RRM RbFoxmut (Fox-RRM*) (Homo sapiens, UniProt Q9NWB1 109-208, R118D;E147R;N151S;E152T)", "T1 sequence": "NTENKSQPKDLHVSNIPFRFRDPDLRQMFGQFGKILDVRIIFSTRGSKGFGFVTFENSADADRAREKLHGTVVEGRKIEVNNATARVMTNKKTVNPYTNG", "experiment": "EMSA; HiTS-Eq, 1 nM pool, 10 min; buffer printed only for the single-RNA assays: 10 mM Tris pH 7.5, 150 mM NaCl, 3.4 mM EDTA, 0.001% NP-40, 30 C", "settings": "tags: His6 N-terminal (pET28a); label: 5' 32P", "summary_of_the_method": "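These values rest on relative association constants, computed from read-count changes of each RNA species versus the control reaction and normalised to the cognate motif. Reads came from free RNA recovered by 8% native PAGE after purified RbFox RRM (wild type or mutant) at increasing concentrations was equilibrated for 10 min in 50 µL with 1 nM of a 5′-radiolabelled pool with 7 randomized nucleotides and DNA-annealed flanks.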"}
{"binder": "B1", "binding signal": "0.0995 KA relative to UGCAUGU"}
{"binder": "B2", "binding signal": "0.075 KA relative to UGCAUGU"}
{"binder": "B3", "binding signal": "0.0696 KA relative to UGCAUGU"}
{"binder": "B4", "binding signal": "0.0661 KA relative to UGCAUGU"}
{"binder": "B5", "binding signal": "0.12 KA relative to UGCAUGU"}
{"binder": "B6", "binding signal": "0.1 KA relative to UGCAUGU"}
{"binder": "B7", "binding signal": "0.135 KA relative to UGCAUGU"}
{"binder": "B8", "binding signal": "0.057 KA relative to UGCAUGU"}
{"binder": "B9", "binding signal": "0.083 KA relative to UGCAUGU"}
{"binder": "B10", "binding signal": "0.0723 KA relative to UGCAUGU"}
{"binder": "B11", "binding signal": "0.115 KA relative to UGCAUGU"}
{"binder": "B12", "binding signal": "0.0971 KA relative to UGCAUGU"}
{"binder": "B13", "binding signal": "0.111 KA relative to UGCAUGU"}
{"binder": "B14", "binding signal": "0.104 KA relative to UGCAUGU"}
{"binder": "B15", "binding signal": "0.0815 KA relative to UGCAUGU"}
{"binder": "B16", "binding signal": "0.188 KA relative to UGCAUGU"}
{"binder": "B17", "binding signal": "0.243 KA relative to UGCAUGU"}
{"binder": "B18", "binding signal": "0.118 KA relative to UGCAUGU"}
{"binder": "B19", "binding signal": "0.101 KA relative to UGCAUGU"}
{"binder": "B20", "binding signal": "0.103 KA relative to UGCAUGU"}
{"binder": "B21", "binding signal": "0.0816 KA relative to UGCAUGU"}
{"binder": "B22", "binding signal": "0.0976 KA relative to UGCAUGU"}
{"binder": "B23", "binding signal": "0.0747 KA relative to UGCAUGU"}
{"binder": "B24", "binding signal": "0.101 KA relative to UGCAUGU"}
{"binder": "B25", "binding signal": "0.0738 KA relative to UGCAUGU"}
{"binder": "B26", "binding signal": "0.0646 KA relative to UGCAUGU"}
{"binder": "B27", "binding signal": "0.0979 KA relative to UGCAUGU"}
{"binder": "B28", "binding signal": "0.158 KA relative to UGCAUGU"}
{"binder": "B29", "binding signal": "0.233 KA relative to UGCAUGU"}
{"binder": "B30", "binding signal": "0.134 KA relative to UGCAUGU"}
{"binder": "B31", "binding signal": "0.086 KA relative to UGCAUGU"}
